# Measured values as given in PubChem BioAssay AID686979 (National Center for Advancing Translational Sciences (NCATS), 2013).
# Several values for one entry are separate records, joined by “and”; a condition that tells them apart may be missing. Equal entries are not always repeated. About 50,000 (12%) of roughly 420,000 compounds were called active. Inconclusive results, whose numbers are uncertain, are shown with a selection of clear calls. Calls follow the shape of the dose curve; as a rule, active = well fitted inhibition curve with a large enough effect; inconclusive = small, poorly fitted or top-dose-only effect; inactive = flat fitted curve, though single readings scatter. Where the call is inconclusive, the potency comes from a doubtful curve fit.
# Test: qHTS for Inhibitors of human tyrosyl-DNA phosphodiesterase 1 (TDP1): qHTS in cells in presence of CPT; also: nearly all actives have a fitted effect of over 55% in size
# Conditions: chicken DT40 Tdp1-/-;hTDP1 cells + 20 nM CPT, ATP luminescence, 48 h; series mostly up to 46.2 µM
# Procedure, shortened: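 Chicken DT40 Tdp1-/- cells complemented with human TDP1, 400 cells/well, exposed to compounds plus 20 nM camptothecin for at least 48 h at 37 C; viability read as ATP content by CellTiter-Glo luminescence.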
# Potency is read from the fitted curve at half-maximal effect; tags tell the direction and shape of the fitted curve.
row,SMILES,Potency
1,CCCOc1ccc(C(=O)Nc2ccc(NC(=O)c3ccccc3)c(C)c2)cc1,"inconclusive: 23.1 µM [inhibitor, single point]"
2,O=C(O)CC1S/C(=N/N=C/c2ccc(-c3ccc(Cl)cc3[N+](=O)[O-])o2)NC1=O (configuration not stated),"inconclusive: 23.1 µM [inhibitor, single point]"
3,Cc1ccc(SC2=C(N(C)C)C(=O)c3ccccc3C2=O)cc1,active: 4.61 µM
4,O=C(Cn1cnc2ccccc21)N/N=C/c1ccccc1[N+](=O)[O-],inactive
5,COc1cc2ccccc2cc1C(=O)Nc1ccc(CN2CCOCC2)cc1,"inconclusive: 18.4 µM [inhibitor, single point]"
6,CCN(c1ccccc1)S(=O)(=O)c1ccc(C(=O)OC(C)C(=O)NCCC2=CCCCC2)cc1 (configuration not stated),"inconclusive: 18.4 µM [inhibitor, single point]"
7,CCc1nc2ccc(C(=O)NCCOc3ccc(OC)cc3)cn2c1N(CC)CCOC,"inconclusive: 20.6 µM [inhibitor, single point]"
8,COc1ccc(CN(Cc2ccccn2)C(=O)CN2C(=O)COc3ccccc32)cc1,"inconclusive: 29.1 µM [inhibitor, single point]"
9,Cc1cc(F)ccc1NC(=O)CS(=O)(=O)c1cccc2nsnc12,inactive
10,Fc1ccc2nc(Nc3nc4cc5c(cc4s3)OCCO5)sc2c1,active: 16.4 µM
11,Cc1ccccc1Nc1c(-c2ccccc2)nc2cccc(C)n12,"inconclusive: 8.2 µM [inhibitor, partial curve] and inconclusive: 5.62 µM [inhibitor, full curve, poor fit]"
12,CCOC(=O)N1CCN(C(=O)Cn2nc(C)n3nc(-c4ccc(OC)cc4)cc3c2=O)CC1,"inconclusive: 18.4 µM [inhibitor, single point]"
13,CS(=O)(=O)Nc1ccccc1C(=O)OCc1cc(=O)n2nc(C3CCCCC3)sc2n1,"inconclusive: 18.4 µM [inhibitor, single point]"
14,CCOC(=O)C1CCC(CN(Cc2ccc(OC)cc2)S(=O)(=O)c2ccc(F)c(C(=O)Nc3c(C)cccc3C)c2)CC1 (configuration not stated),"inconclusive: 6.51 µM [inhibitor, full curve, poor fit]"
15,O=C(COc1ccc2ccccc2c1)NCCn1ccc2ccccc21,"inconclusive: 11.6 µM [inhibitor, partial curve, poor fit]"
16,O=C(c1ccccc1Cl)N(C(=O)c1ccccc1Cl)c1nccc(-c2cccs2)n1,"inconclusive: 8.2 µM [inhibitor, partial curve]"
17,CCN(CC)S(=O)(=O)c1cc(NC(=O)c2cc(-c3ccccn3)nc3ccccc23)ccc1C,active: 23.1 µM
18,Cc1ccc(S(=O)(=O)N2CCN(c3nc(-c4cccs4)nc4c3ncn4COC(=O)C(C)(C)C)CC2)cc1,inactive
19,Cc1cc(CNC(=O)CC2C(=O)NCCN2Cc2ccc(-c3ccccc3)cc2)nn1C (configuration not stated),"inconclusive: 23.1 µM [inhibitor, single point]"
20,CCOc1ccccc1N(CC(=O)Nc1ccc(S(=O)(=O)N2CCCC2)cc1)S(C)(=O)=O,"inconclusive: 20.6 µM [inhibitor, single point]"
21,Cc1ccccc1N1CCN(S(=O)(=O)c2ccc3ccccc3c2)CC1,"inconclusive: 1.64 µM [inhibitor, partial curve, poor fit]"

row,SMILES,Potency
1,Cc1ccccc1OCC(=O)Nc1nnc(C2CCCC2)s1,inactive
2,COc1cc(OC)c(OC)cc1CCC(C)NC(=O)Cc1ccccc1 (configuration not stated),inactive
3,CC(C)c1ccc(NC(=O)N2CCC(c3nc4ccccc4o3)CC2)cc1,active: 20.6 µM
4,CCOC(=O)C1=C(CCc2ccccc2)NC(=O)NC1c1ccc(C#N)cc1 (configuration not stated),"inconclusive: 29.1 µM [inhibitor, single point]"
5,CCC(NC(=S)NCc1ccc(F)cc1)c1ccc(C)cc1 (configuration not stated),"inconclusive: 29.1 µM [inhibitor, single point]"
6,CCCN1Cc2cccc(C(=O)N3CCN(c4cc(Cl)ccc4C)CC3)c2C1=O,"inconclusive: 29.1 µM [inhibitor, single point]"
7,C/C(=N\NC(=O)c1ccc(C)cc1)C1C(=O)c2ccccc2C1=O,"inconclusive: 16.4 µM [inhibitor, single point]"
8,NC(=O)c1cccc(-c2coc3c(C(=O)NC4CCCCC4)cccc23)c1,"inconclusive: 20.6 µM [inhibitor, single point]"
9,COc1ccc(S(=O)(=O)N(C(C)=O)c2ccc3oc(=O)sc3c2)cc1,"inconclusive: 20.6 µM [inhibitor, single point]"
10,Cc1cc(C(=O)N2CCN(S(=O)(=O)c3ccccc3F)CC2)c(C)o1,"inconclusive: 23.1 µM [inhibitor, single point]"
11,COc1ccc(CNc2nc(SCc3ccccc3Cl)nc3ccccc23)cc1,"inconclusive: 20.6 µM [inhibitor, single point]"
12,COc1cc(/C=N/NC(=O)CNc2n[nH]c(=O)[nH]c2=O)ccc1OCc1ccccc1,inactive
13,O=C(Cc1cccc2ccccc12)N/N=C1\CCCc2ccccc21,"inconclusive: 20.6 µM [inhibitor, single point]"
14,CCN(CC)C(=O)N1c2ccccc2Sc2ccccc21,"inconclusive: 29.1 µM [inhibitor, single point]"
15,CC(C)(C)NC(=O)C(c1ccco1)N(Cc1ccc(F)cc1)C(=O)c1snc(C(N)=O)c1N (configuration not stated),inactive
16,O=C(N/N=C/c1ccccc1)c1cccc2ccccc12,"inconclusive: 1.16 µM [inhibitor, full curve]"
17,CCN(C(=O)c1cn(CC(C)C)c(=O)c2cc(OC)c(OC)cc12)c1cc(OC)ccc1OC,active: 13 µM
18,CC(OC(=O)CCN=C1NS(=O)(=O)c2ccccc21)C(=O)N(C)C1CCCCC1 (configuration not stated),"inconclusive: 29.1 µM [inhibitor, single point]"
19,CCCCNc1c(-c2cccc(SC(C)CC)c2)nc2ccc(Cl)cn12 (configuration not stated),active: 16.4 µM
20,CN(C)/C=C1\C(=O)ON=C1c1ccccc1,inactive
21,COc1ccc(N2CCN(c3ccc4nnc(CCC(=O)Nc5ccc(C)cc5)n4n3)CC2)cc1,"inconclusive: 29.1 µM [inhibitor, single point]"
